The values that follow come from patent US20050053973A1 (published 2005).

The chains are these.
B1: IgE-1.23 (designed binder)
chain: CPAGQFRCENGRCLPPPWRCDGVNDCEDNSDEAGCGDSHILPFSTPGPSTCPANEFQCRNSSTCIPRRWLCDGDDDCGDGSDETGCSAPASEPPGSL
notes: On phage in the rank ELISA, purified protein in Biacore; tags not described; also called Walked Dimer 23
B2: IgE-1.5 (designed binder)
chain: CPANEFQCRNSSTCIPRRWLCDGDDDCGDGSDETGCSAPASEPPGSLCPANEFQCRNSSTCIPRRWLCDGDDDCGDGSDETGCSAPASEPPGSL
notes: On phage in the rank ELISA, purified protein in Biacore; tags and exact junction not readable; also called Walked Dimer 5
B3: IgE-1 (designed binder)
chain: CPANEFQCRNSSTCIPRRWLCDGDDDCGDGSDETGCSAPASEPPGSLSLQ
notes: LDL receptor class A domain monomer; tags not described; also called IgE-1 monomer; Monomer
B4: IgE-1.19 (designed binder)
chain: CPANEFQCRNSSTCIPRRWLCDGDDDCGDGSDETGCSAPASEPPGSLCPPDQFRCKNGRCIPRHLVCDGDDDCGDDSDEAGCQTRTSLQ
notes: also called Walked Dimer 19
B5: IgE-1.2 (designed binder)
chain: CPANEFQCRNSSTCIPRRWLCDGDDDCGDGSDETGCSAPASEPPGSLCLPSQFPCDSGNCLPLTWLCDGVDDCGDNSDEEDCSAPASEPPGSLSLQ
notes: also called Walked Dimer 2
B6: IgE-1.26 (designed binder)
chain: CPANEFQCRNSSTCIPRRWLCDGDDDCVDGSDETGCGSPVPTCPANEFQCRNSSTCIPRRWLCDGDDDCGDGSDETGCSAPASEPPGSLSLQ
notes: also called Walked Dimer 26
B7: IgE-1.10 (designed binder)
chain: CPANEFQCRNSSTCIPRRWLCDGDDDCGDGSDETGCSAPASEPPGSLCQSSQFPCHDYEICLPATLLCDGVDDCLDGSDETNCAKPTSLQ
notes: also called Walked Dimer 10
B8: IgE-1.6 (designed binder)
chain: CGSGQFPCGSGHCVPLNWVCDGVDDCGDDSDETDCKAHTCPANEFQCRNSSTCIPRRWLCDGDDDCGDGSDETGCSAPASEPPGSL
notes: also called Walked Dimer 6
B9: IgE-1.1 (designed binder)
chain: CPANEFQCRNSSTCIPRRWLCDGDDDCGDGSDETGCSAPASEPPGSLCQPDQFRCSSGRCLSREWLCDGEDDCEDDSDETDCPTRTSLQ
notes: also called Walked Dimer 1
B10: IgE-1.25 (designed binder)
chain: CPANEFQCRNSSTCIPRRWLCDGDDDCGDGSDETGCSAPASEPPGSLCLSSQFRCENGQCIPLTWGCDGDDDCQDGSDETNCPTRTSLQ
notes: also called Walked Dimer 25
B11: IgE-1.30 (designed binder)
chain: CPANEFQCRNSSTCIPRRWLCDGDDDCGDGSDETGCSAPASEPPGSLCAASQFRCNNNSRCLPPPLGCDGVDDCGDNSDEADCGRPGPGATSAPAASLQ
notes: also called Walked Dimer 30
B12: IgE-1.21 (designed binder)
chain: CPANEFQCRNSSTCIPRRWLCDGDDDCGDGSDETGCSAPASEPPGSLCEPGQFQCNNNDTCVSPPWLCDADRDCGRSDERPPHCATPELTSLQ
notes: also called Walked Dimer 21
B13: IgE-1.4 (designed binder)
chain: CPANEFQCRNSSTCIPRRWLCDGDDDCGDGSDETGCSAPASEPPGSLCAPNEFQCRDNNTCLPEDWRCDGEDDCADNSDEANCTTPGPTSLQ
notes: also called Walked Dimer 4
B14: IgE-1.9 (designed binder)
chain: RVWRRLVGSCRPNQFTCKSSETCIPAHWRCDGDDDCGDGSDEADCETRTCPANEFQCRNSSTCIPRRWLCDGDDDCGDGSDETGCSAPASEPPGSL
notes: also called Walked Dimer 9
B15: IgE-1.31 (designed binder)
chain: CPANEFQCRNSSTCIPRRWLCDGDDDCGDGSDETGCSAPASEPPGSLCPANEFQCRNSSTCIPRRWLCDGEDDCGDGSDETGCSAPASEPPGSLSLQ
notes: also called Walked Dimer 31
B16: IgE-1.8 (designed binder)
chain: CPANEFQCRNSSTCIPRRWLCDGDDDCGDGSDETGCSAPASEPPGSLCAPSQFRCGNGRCIPRSWRCDGEDDCADDSDEENCSAPASEPPGSLSLQ
notes: also called Walked Dimer 8
B17: IgE-1.16 (designed binder)
chain: CPANEFQCRNSSTCIPRRWLCDGDDDCGDGSDETGCSAPASEPPGSLCRRAEFTCRNGSCLPVPWLCDAENDCPDGSDEPDCGSPARRSLQ
notes: also called Walked Dimer 16
B18: IgE-1.12 (designed binder)
chain: CPANEFQCRNSSTCIPRRWLCDGDDDCGDGSDETGCSAPASEPPGSLCPPGEFPCGNGRSVPLTWLCDGVDDCGDNSDETGCETTGRTSLQ
notes: also called Walked Dimer 12
B19: IgE-1.3 (designed binder)
chain: CPANEFQCRNSSTCIPRRWLCDGDDDCGDGSDETGCSAPASEPPGSLCRANQFPCDNGNCLPQPWRCDGDNDCVDGSDETSCEAPAHTSLQ
notes: also called Walked Dimer 3

T1 sequence (P01854 other isoform, or with tags, fused parts or gaps): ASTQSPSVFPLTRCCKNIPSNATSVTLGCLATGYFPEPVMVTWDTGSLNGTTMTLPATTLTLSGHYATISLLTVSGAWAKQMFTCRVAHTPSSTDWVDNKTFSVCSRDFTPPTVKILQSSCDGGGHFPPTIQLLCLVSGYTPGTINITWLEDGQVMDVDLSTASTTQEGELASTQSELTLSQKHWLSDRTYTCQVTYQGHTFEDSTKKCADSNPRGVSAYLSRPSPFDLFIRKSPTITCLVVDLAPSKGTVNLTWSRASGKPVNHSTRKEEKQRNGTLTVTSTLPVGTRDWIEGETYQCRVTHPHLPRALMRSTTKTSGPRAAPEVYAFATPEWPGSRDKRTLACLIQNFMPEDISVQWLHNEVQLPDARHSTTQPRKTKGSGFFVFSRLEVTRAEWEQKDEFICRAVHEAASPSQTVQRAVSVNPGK

For one assay, the target named is T1, human IgE (human, UniProt P01854 1-428). The experiment in a line: Biacore, human IgE coupled to a CM5 chip by NHS/EDC, sample protein in flow. Background: In SPR one partner is held on a chip, and binding of the other changes the refractive index at the surface.
The molecule B1 registered a Kd of 320 nM.

With B2, the Kd came to 220 nM.

As to B3, the affinity, expressed as Kd, was 1100 nM.

The next assay has as its target T1, human IgE. Nature of the assay: phage ELISA on six dilutions of immobilised human IgE (2.5 ng to 2.4 pg per well), αM13-HRP; rank of the signal among all clones averaged over the dilutions.
Turning to B4, the “Avg. Rank” value was determined as 9 rank.

B5: the “Avg. Rank” value stood at 4 rank.

On to B6, for which the “Avg. Rank” value turned out to be 18 rank.

With B7, the “Avg. Rank” value stood at 17 rank.

As for B8, the “Avg. Rank” value is 20 rank.

In the case of B9, the “Avg. Rank” value was 4 rank.

Take B10: the “Avg. Rank” value came to 15 rank.

B11: the “Avg. Rank” value came out at 11 rank.

Take B12: the “Avg. Rank” value worked out at 11 rank.

As for B13, the “Avg. Rank” value is 4 rank.

For the molecule B14, the “Avg. Rank” value was determined as 24 rank.

For B15, the “Avg. Rank” value was found to be 6 rank.

Turning to B16, the “Avg. Rank” value came out at 9 rank.

Regarding B17, the “Avg. Rank” value is 10 rank.

In the case of B1, the “Avg. Rank” value worked out at 6 rank.

For the molecule B2, the “Avg. Rank” value is 1 rank.

With B18, the “Avg. Rank” value is 11 rank.

As to B3, the “Avg. Rank” value turned out to be 22 rank.

Turning to B19, the “Avg. Rank” value amounted to 15 rank.

One may read the Kd as the constant that tells how readily two partners part at equilibrium. High values mean lower affinity, low ones higher affinity.
